Assay results as given in PubChem BioAssay AID1346428 (National Center for Advancing Translational Sciences (NCATS), 2018).
“And” between values parts separate entries of the source, which are not always exact repeats. Identical values can stand only once. The campaign covered roughly 48,000 compounds. About 1,200 (2.5%) were called active. Inconclusive results (about 2%) are left out.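 Rule for the calls: active = activation of at least 60% and not above a set upper limit (about 1 call in 100 departs from these limits); inconclusive = activation of 40% to 60%, or above that upper limit; inactive = activation under 40%.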 The list shows a part of the results.

biological target: Probable G-protein coupled receptor 32 (Homo sapiens) (UniProt O75388); assay: qHTS for Agonists of Human Resolvin D1 Receptor DRV1; conditions: CHO-K1 GPR32 beta-arrestin PathHunter luminescence, 90 min; at 76.9 µM; active compounds read high; zero percent set by DMSO-only wells; note: 0% is about no effect
How it was run: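 Cells are plated overnight, treated with compounds in DMSO for 90 minutes at 37 °C, and developed with PathHunter detection reagent for 1 hour before luminescence is read; signal reflects beta-arrestin binding to GPR32 in engineered CHO-K1 cells.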

Sequence of UniProt O75388 (O75388 whole entry, looked up): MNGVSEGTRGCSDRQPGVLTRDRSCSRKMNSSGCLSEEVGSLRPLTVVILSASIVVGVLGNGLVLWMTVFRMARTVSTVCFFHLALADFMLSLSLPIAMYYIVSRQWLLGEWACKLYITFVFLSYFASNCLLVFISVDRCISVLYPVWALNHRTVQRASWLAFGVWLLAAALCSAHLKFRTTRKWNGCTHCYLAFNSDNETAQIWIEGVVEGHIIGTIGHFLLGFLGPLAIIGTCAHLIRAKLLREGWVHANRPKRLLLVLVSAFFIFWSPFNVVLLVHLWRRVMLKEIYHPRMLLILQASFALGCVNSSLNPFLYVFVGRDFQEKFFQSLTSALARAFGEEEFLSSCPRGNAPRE

activation, active:
CC1=C(c2ccc(C)cc2)S(=O)(=O)NC1=NCCCN1CCN(c2cc(C)ccc2C)CC1 84.3%

activation, inactive:
COCCN(Cc1ccco1)C(=O)c1cc2c(Cl)nc3ccc(C)cc3c2s1 0.603%
COc1ccc(NC(=O)Cn2nc(SC)c(S(=O)(=O)c3ccc(C)cc3)c2N)cc1OC 18%
CCN(CC)CCCNC(=O)CSc1nc2nc(C)c(Cc3ccccc3C)c(C)n2n1 -17.8%
O=C(Nc1c(Cl)cccc1Cl)c1cccc2c1C(=O)N(C1CCCCC1)C2 -2.69%
O=C(O)c1ccc2oc(=O)n(Cc3ccccc3)c2c1 -15.9%
COc1ccc(-n2nc(C(=O)NCCCOC(C)C)c3c4ccccc4n(C)c3c2=O)cc1 -3.96%
CCOc1ccc(NC(=O)CC2C(=O)N(c3ccc(F)cc3)C(=O)N2CCc2sccc2C)cc1 (stereo not drawn) -32.4%
CCC(=O)N1CCc2cc(Br)cc(S(=O)(=O)CCC(=O)N(C)c3cccc(C)c3)c21 -18%
COc1ccc(CNc2nc3c(-c4ccc(C)cc4)nnn3c3ccccc23)cc1 26.3%
Fc1ccccc1N1CCN(c2ncnc3c2nc2n3CCCCC2)CC1 44.3%
COc1ccc(C2C(=O)N(C3CCC(C)CC3)CC(=O)N2C2CCCCC2)cc1OC (stereo not drawn) -5.16%
CCCS(=O)(=O)NCCc1csc2nc(-c3ccc(C)cc3)nn12 -8.45%
CCOC(=O)c1cc2c(=O)n3ccccc3nc2n(CCCOC)c1=NC(=O)c1c(-c2ccccc2Cl)noc1C -19.9%
Cc1nc2nc(C)c(NS(=O)(=O)c3ccc(F)cc3)c(=O)n2[nH]1 18.7%
Cc1ccccc1OCCCn1c(CCNC(=O)C2CCCCC2)nc2ccccc21 -20.3%
O=C(Cn1cnc(S(=O)(=O)N2CCCC2)c1)Nc1cccc(F)c1 4.24%
CCOc1ccc(NC(=O)C2CCCN(c3nn4cc(-c5ccc(OC)cc5)nc4s3)C2)cc1 (stereo not drawn) -3.91%
Cc1ccc(NC(=O)c2sc3nc4n(c(=O)c3c2C)CCCCC4)c(Br)c1 -14.4%
CN(C(=O)Cn1c(=O)n(CCC(=O)NCc2ccc3c(c2)OCO3)c(=O)c2sccc21)c1ccccc1 -15%
Cc1ccc(-n2ncc(C(=O)N3CCN(C4CCCCC4)CC3)c2C2CCN(C(=O)OC(C)(C)C)CC2)cc1C -14.5%
COc1ccc(N2C(=O)CSC23C(=O)N(Cc2ccccc2F)c2ccccc23)cc1Cl (stereo not drawn) -19%
O=S(=O)(NCc1ccccc1Cl)c1ccc(-c2cnc(C3CC3)o2)cc1 0.997%
CCC1=Nc2cc(C(=O)NCc3ccccc3OC)ccc2Sc2ccc(Cl)cc21 -31.9%
COc1ccc(-c2cn3cccnc3n2)cc1NC(=O)COc1ccccc1 10%
Cc1c(CC(=O)N2CCCCC2)c(=O)oc2cc3occ(C(C)(C)C)c3cc12 -2.33%
CN1CCN(C(c2ccc(Cl)cc2Cl)c2sc3nc(-c4ccco4)nn3c2O)CC1 (stereo not drawn) -2.91%
Cn1nc(C(=O)NCc2cccc(Cl)c2)c2c1-c1ccccc1SC2 -15.6%
COCCNc1ncnc2c1cnn2-c1cc(Cl)ccc1C 37.4%
Cc1cc(C)c2c(n1)SCC(=O)N2CC(=O)Nc1ccc(C)c(C)c1 0.748%
Cc1ccc(OCC(=O)Nc2ccc(OCc3cc(=O)n4ccsc4n3)cc2)cc1 -18.9%
CCC(=O)N1c2ccccc2CC1C(=O)NCCc1ccccc1Cl (stereo not drawn) 7.87%
Cc1ccc(S(=O)(=O)C2(C(=O)Nc3ccc(C)c(Cl)c3)CC2)cc1 -11.8%
COc1ccc(N2CCN(c3ncnc4c3cnn4-c3ccc(C)c(Cl)c3)CC2)cc1 24.6%
CC(C)(C)C(=O)NC1(C(F)(F)F)NC(=O)N(c2ccc(F)cc2)C1=O (stereo not drawn) -5.46%
Cc1ccc(Cl)cc1N1CCN(C(=O)CN2C(=O)COc3ccc(S(=O)(=O)N4CCC(C)CC4)cc32)CC1 -15.3%
Cc1ccc(CNC(=O)CCS(=O)(=O)c2cc3c(cc2Cl)NC(=O)CO3)cc1 -3.49%
O=C(NCc1ccc(Cl)cc1)c1ccc(NC(=O)N2CC3CCCN3c3ccccc32)cc1 (stereo not drawn) -32.8%
CCOC(=O)C1CCN(C(=O)Cn2c(-c3cccs3)cc3cc(Cl)ccc32)CC1 -12.8%
CCOC(=O)CN(Cc1ccccc1)C(C(=O)NC1CCCCC1)c1ccc(C)cc1 (stereo not drawn) -7.31%
Cc1c(C(=O)NCc2ccccc2Cl)sc2nc(-c3ccc(F)cc3)cn12 -15.9%
O=C(NCc1ccc(F)cc1)c1cc(Sc2ccc(F)cc2F)nc2ccccc12 -33.7%
COc1ccc(CNC(=O)c2ccc(-c3nc(CSc4ccc(C)cc4)c(C)o3)cc2)cc1OC -6.35%
Cc1nn(C(=O)c2ccccc2)c(C)c1S(=O)(=O)N1CCOCC1 12.2%
CCC(=O)N1CCc2cc(S(=O)(=O)NC(C(=O)NCc3ccccc3Cl)C(C)C)ccc21 (stereo not drawn) -9.52%
CCOc1ccccc1CNS(=O)(=O)c1ccc2c(c1)C(C)(C)C(=O)N2C 2.24%
CN(C(=O)CSc1nc2ccc(NC(=O)c3ccccc3F)cc2s1)c1ccccc1 -10.8%
C[N+](C)(C)CCOC(N)=O -6.54% and 2.21%
Cc1ccc(CNC(=O)c2cccc(N3CCCS3(=O)=O)c2)cc1 36.6%
COC(=O)c1cccc(NC(=O)N(C)CCc2c(C)nn(C)c2C)c1 -2.2%
CCc1ccc(-n2nc3ccc(NC(=O)c4cc(Cl)c(OC)c(Cl)c4)cc3n2)cc1 -6.04%
CCOc1ccc(C2C(=O)N(C3CCCCCC3)CC(=O)N2CCC2=CCCCC2)cc1OC (stereo not drawn) -35.2%
Cc1ccc(NC(=O)CN(CCc2ccccc2)S(=O)(=O)c2ccccc2)c(C)c1 10.3%
CCOc1ccc(CNC(=O)Cn2nc(C)n3cccc3c2=O)cc1 -8.88%
CCCCn1cc(S(=O)(=O)c2ccc(OCC)cc2)c(=O)c2cc(OC)c(OC)cc21 -26%
CCOc1ccc(N2CC(C)Cn3c2nc2c3c(=O)n(CC(=O)O)c(=O)n2C)cc1 (stereo not drawn) 4.78%
COc1cc(N2C(=O)CSC23C(=O)N(C)c2ccccc23)cc(OC)c1OC (stereo not drawn) 1.13%
Cc1ccc(CNC(=O)Cn2c(=O)n(Cc3ccccc3)c(=O)c3c2c2cc(C)ccc2n3C)cc1 0.279%
COc1ccc(CN2CCc3nc(Nc4ccccc4)ncc3C2)c(OC)c1OC -16.1%
Cc1cc(C)cc(NC(=O)C(=O)NCC(c2ccc3c(c2)OCO3)N2CCOCC2)c1 (stereo not drawn) -14.6%
COCCN1Cc2cccc(C(=O)Nc3ccc(C)c(F)c3)c2C1=O 0.358%
Fc1ccc(-c2cc(-c3nc(-c4ccccc4)no3)[nH]n2)cc1 -9.26%
COc1ccc(Nc2nc3c(S(=O)(=O)c4ccccc4)nnn3c3ccc(Cl)cc23)c(OC)c1 -2.48%
CC(C)c1ccc(NC(=O)c2cn(C3CCCCC3)c(=O)c3c2c2ccccc2n3C)cc1 3.34%
CC(C)(C)NC[C@H](O)COc1cccc2c1CCCC2=O -1.41%
Cc1ccccc1CNC(=O)c1cccc(NC(=O)c2nsc3ccccc23)c1 -22.6%
COc1ccc(-c2nc(C)c(CCNC(=O)c3ccc(F)c(F)c3)s2)cc1 50%
Cc1ccccc1NC(=O)N1CCc2cc(S(=O)(=O)N3CCC(C)CC3)ccc21 -24.9%
Cc1nc2nc(SCC(=O)Nc3cccc(Cl)c3)nn2c(C)c1Cc1ccccc1 9.31%
CCCCn1c(=N)c(S(=O)(=O)c2ccccc2)cc2c(=O)n3cccc(C)c3nc21 -6.21%
CC(C)Cn1cc(NC(=O)NCc2ccccc2)c2ccccc2c1=O -39.1%
Cc1ccc2c(c1)c1c(c(=O)n(-c3cccc(Cl)c3)c(=O)n1CC(=O)c1ccc(Cl)cc1)n2C 9.72%
OC[C@H]1O[C@H](n2cnc3c(N[C@H]4CCC[C@@H]4O)ncnc32)[C@H](O)[C@@H]1O 4.72%
COc1ccccc1C1=NS(=O)(=O)N(C)C(C(=O)Nc2cc(OC)c(OC)c(OC)c2)=C1 -15.8%
COc1ccc(C)cc1NC(=O)C1CCN(S(=O)(=O)c2ccc3[nH]c4c(c3c2)CCCCC4)CC1 -14.8%
Nc1cc(=O)nc(SCC(=O)Nc2ccc(F)cc2)n1-c1ccccc1Cl -2.06%
O=C(COc1ccc([N+](=O)[O-])cc1)NCC1(N2CCOCC2)CCCCC1 -7.89%
Cc1cc(C)cc(NC(=O)CCCN2C(=O)COc3ccc(C)cc32)c1 -20.3%
Oc1c(C(c2ccccc2F)N2CCCCC2)sc2nc(-c3ccco3)nn12 (stereo not drawn) -2.46%
CC(=O)c1cccc(NC(=O)CSc2nc(=O)n(Cc3cccnc3)c3c2CCC3)c1 -6.7%
CCCCc1nc2ccccc2n2c(-c3ccc(OC)cc3)c3c(=O)n(C)c(=O)n(C)c3c12 -18%
CC(C)c1ccc(NC(=O)C2CCN(c3nc(-c4ccc(C(C)C)cc4)no3)CC2)cc1 -8.56%
Cc1c(C(=O)N2CCC(C)CC2)c(S(=O)(=O)NCc2ccc(Br)cc2)c(C)n1C -19.6%
